# Source: the supplement of paper PMC12217912
# Some of the results follow. The full chains were built here from the parent and the listed change. Inactive controls read about 0.05.
# B1: TEV protease; numbered along this chain (parent)
# chain: MGESLFKGPRDYNPISSSICHLTNESDGHTTSLYGIGFGPFIITNKHLFRRNNGTLVVQSLHGVFKVKDTTTLQQHLVDGRDMIIIRMPKDFPPFPQKLKFREPQREERICLVTTNFQTKSMSSMVSDTSCTFPSGDGIFWKHWIQTKDGQCGSPLVSTRDGFIVGIHSASNFTNTNNYFTSVPKNFMELLTNQEAQQWVSGWRLNADSVLWGGHKVFMVKPEEPFQPVKEATQL
# Variants of: B1
# Assay: raw area under fraction-flipped curve 0-4 h after induction (AUC4h, not background-subtracted), DNA-recorder readout of cleavage of the substrate (dimensionless); higher = more cleavage of the substrate by the protease variant
# Conditions: temperature: 34 °C; time window: 0-4 h after rhamnose induction
# 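Note: Bxb1 expression induced with 0.2% (w/v) L-rhamnose at OD600 near 0.5, cultures sampled hourly, flipped fraction per protease–substrate barcode pair counted by paired-end Illumina sequencing.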
Variant,area with substrate ENLYFQD,area with substrate ENLYFQF,area with substrate ENLYFQG,area with substrate ENLYFQH,area with substrate ENLYFQK,area with substrate ENLYFQN,area with substrate ENLYFQR,area with substrate ENLYFQS,area with substrate ENLYFQT,area with substrate ENLYFQV,area with substrate ENLYFQY,area with substrate ENLYFQE,area with substrate ENLYFQP,area with substrate ENLYFQI,area with substrate ENLYFQL,area with substrate ENLYFQM,area with substrate ENLYFQW
MGESLFKGPRDYNPISSSICHLTNESDGHTTSLYGIGFGPFIITNKHLFRRNNGTLVVQSLHGVFKVKDTTTLQQHLVDGRDMIIIRMPKDFPPFPQKLKFREPQREERICLVTTNFQTKSMSSMVSDTSCTFPSGDGIFWKHWIQTKDGQCGSPLVSTRDGFIVGIHSASNFTNTNNYFTSVPKNKMELLTNQEAQQWVSGWRLNADSVLWGGHKVFMVKPEEPFQPVKEATQL [F187K],0.0521,0.0294,0.0424,0.069,0.0484,0.0531,0.0449,0.0521,0.0538,0.0633,0.0342,–,–,–,–,–,–
MGESLFKGPRDYNPISSSICHLTNESDGHTTSLYGIGFGPFIITNKHLFRRNNGTLVVQSLHGVFKVKDTTTLQQHLVDGRDMIIIRMPKDFPPFPQKLKFREPQREERICLVTTNFQTKSMSSMVSDTSCTFPSGDGIFWKHWIQTKDGQCGSPLVSTRDGFIVGIHSASNFTNTNNYFTSVPKNFMELLTNQEAQQWVSGWRLNADSVLWGGHEVFMVKPEEPFQPVKEATQL [K216E],–,–,–,–,–,0.0588,–,0.093,–,–,–,0.064,–,–,–,–,–
MGESLFKGPRDYNPISSSICHLTNESDGHTTSLYGIGFGPFIITNKHLFRRNNGTLVVQSLHGVFKVKDTTTLQQHLVDGRDMIIIRMTKDFPPFPQKLKFREPQREERICLVTTNFQTKSMSSMVSDTSCTFPSGDGIFWKHWIQTKDGQCGSPLVSTRDGFIVGIHSASNFTNTNNYFTSVPKNFMELLTNQEAQQWVSGWRLNADSVLWGGHKVFMVKPEEPFQPVKEATQL [P89T],–,–,0.0868,–,–,0.0997,0.0426,0.0886,0.0819,0.0747,0.0643,0.0342,0.0582,–,–,–,–
MGESLFKGPRDYNPISSSICHLTNESDGHTTSLYGIGFGPFIITNKHLFRRNNGTLVVQSLHGVFKVKDTTTLQGHLVDGRDMIIIRMPKDFPPFPQKLKFREPQREERICLVTTNFQTKSMSSMVSDTSCTFPSGDGIFWKHWIQTKDGQCGSPLVSTRDGFIVGIHSASNFTNTNNYFTSVPKNFMELLTNQEAQQWVSGWRLNADSVLWGGHKVFMVKPEEPFQPVKEATQL [Q75G],–,–,0.0828,–,–,–,–,0.0979,0.0631,0.0568,0.0618,0.0522,0.0486,0.0309,0.0556,0.0528,0.0506
MGESLFKGPRDYNPISSSICHLTNESDGHTTSLYGIGFGPFIITNKHLFRRNNGTLVVQSLHGVFKVKDTTTLQQHLVDGRDMIIIRMPKDFPPFPQKLKFREPQREERICLVTTNFQTKSMSSMVSDTSCTFPSGGGIFWKHWIQTKDGQCGSPLVSTRDGFIVGIHSASNFTNTNNYFTSVPKNFMELLTNQEAQQWVSGWRLNADSVLWGGHKVFMVKPEEPFQPVKEATQL [D137G],–,0.0726,0.0866,0.0773,0.0708,0.0926,–,0.0907,0.0685,0.0549,0.0758,0.0601,–,0.0646,0.047,0.0714,0.0496
MGESLFKGPRDYNPISSSICHLTNESDGHTTSLYGIGFGPFIITNKHLFRRNNGTLVVESLHGVFKVKDTTTLQQHLVDGRDMIIIRMPKDFPPFPQKLKFREPQREERICLVTTNFQTKSMSSMVSDTSCTFPSGDGIFWKHWIQTKDGQCGSPLVSTRDGFIVGIHSASNFTNTNNYFTSVPKNFMELLTNQEAQQWVSGWRLNADSVLWGGHKVFMVKPEEPFQPVKEATQL [Q59E],–,0.0801,–,0.0751,–,–,–,0.0973,0.0639,0.0684,0.0714,0.0545,–,0.0676,0.0728,0.0809,–
MGESLCKGPRDYNPISSSICHLTNESDGHTTSLYGIGFGPFIITNKHLFRRNNGTLVVQSLHGVFKVKDTTTLQQHLVDGRDMIIIRMPKDFPPFPQKLKFREPQREERICLVTTNFQTKSMSSMVSDTSCTFPSGDGIFWKHWIQTKDGQCGSPLVSTRDGFIVGIHSASNFTNTNNYFTSVPKNFMELLTNQEAQQWVSGWRLNADSVLWGGHKVFMVKPEEPFQPVKEATQL [F6C],–,–,–,–,0.069,–,–,0.0874,0.068,–,–,0.0621,–,0.0655,–,–,–
MGESLFKGPRDYNPISSSICHLTNESDGHTTSLYGIGFGPFIITNKHLFRRNNGTLVVQSLHGVFKVKDTTTLQQHLVDGRDMIIIRMPKDFPPFPQKLKFREPQRTERICLVTTNFQTKSMSSMVSDTSCTFPSGDGIFWKHWIQTKDGQCGSPLVSTRDGFIVGIHSASNFTNTNNYFTSVPKNFMELLTNQEAQQWVSGWRLNADSVLWGGHKVFMVKPEEPFQPVKEATQL [E107T],–,–,–,–,–,–,0.0638,0.106,0.0712,–,–,0.0649,–,–,0.0648,0.0954,0.0727
MGESLFKGPRDYNPISSSICHLTNESDGHTTSLYGIGFGPFIITNKHLFRRNNGTLVVQSLHGVFKVKDTTTLQQHLVDGRDMIIIRMPKDFPPFPQKLKFREPQREERICLVTTNFQTKSMSSMVSDTSCTFPSGDGIFWKHWIQTKDGQCGSPLVSTRDGFIVGIHSASNFMNTNNYFTSVPKNFMELLTNQEAQQWVSGWRLNADSVLWGGHKVFMVKPEEPFQPVKEATQL [T174M],–,–,–,–,0.0663,0.0773,–,0.0988,–,0.0661,0.0567,0.0543,–,0.0028,–,0.0878,–
MGESLFKGPRDYNPISSSICHLTNESDGHTTSLYGIGFGPFIITNKHLFRRNNGTLVIQSLHGVFKVKDTTTLQQHLVDGRDMIIIRMPKDFPPFPQKLKFREPQREERICLVTTNFQTKSMSSMVSDTSCTFPSGDGIFWKHWIQTKDGQCGSPLVSTRDGFIVGIHSASNFTNTNNYFTSVPKNFMELLTNQEAQQWVSGWRLNADSVLWGGHKVFMVKPEEPFQPVKEATQL [V58I],–,0.0779,0.0918,–,–,–,0.0422,0.113,–,–,–,–,0.0559,0.0547,–,0.109,0.085
